{"source": "PubChem BioAssay (NCATS)", "note": "The list shows a part of the results. Further columns of the screen follow, without active or inactive calls. Most of these compounds were active or inconclusive in the main read-out, so they are no random draw. Words in brackets tell the shape of the fitted curve; partial curves, single points and poor fits give uncertain potencies. Tags tell the direction and shape of the fitted curve.", "data": [{"assay": "Cell-based coincidence reporter assay to measure PMP22 gene transcription in S16 Pmp22-F2sN cells - Confirmatory screen (AID 1508646)", "settings": "S16 Schwann cells Pmp22-F2sN, dual luciferase, 24 h; measured here: FLuc reporter channel", "excerpt": "(§1) Assay Provider: Jim Inglese Ph.D. National Center for Advancing Translational Science, National Institutes of Health, Rockville, MD CMT is a heterogeneous group of neurological disorders that affect approximately 1 in 2,500 people. In particular, the most common form of CMT, CMT1A is genetically linked to the duplication of the PMP22 gene which leads to Schwann cell overexpression, thus manifesting itself as a typical case of dose-sensitive diseases. To identify small molecule compounds that can mediate the expression of PMP22 we developed a phenotypic assay screening strategy by utilizing genome editing techniques to construct Schwann cell lines containing novel reporter technology to monitor the transcriptional or translational regulation of PMP22. For high sensitivity we use a bioluminescent reporter system embedded in the 3' UTR of the PMP22 gene (S16(c9) Pmp22-F2sN) to identify compounds that inhibit gene expression. […] We can further discriminate the effect of all transcriptionally active molecules on PMP22 translation or stability with an assay that incorporates a short NLuc peptide (HiBiT) at the C-terminus of expressed PMP22 (S16(f8) PMP22-HiBiT) allowing alpha complementation and luminescence detection of membrane-associated PMP22 protein. These assays were screened against the NCATS Sytravon Library Collection. Miniaturization of these assays to 1536-well plate format for quantitative high throughput screening (qHTS) yielded rich data sets immediately from the qHTS assay (S16(c9) Pmp22-F2sN), when compared with data from a cell viability assay (Cell TiterGlo) to identify compounds that decreased the output signals through cellular toxicity to streamline the selection process of actives for subsequent characterization using the HiBiT assay (S16(f8) PMP22-HiBiT).\n(§2) Cell-based coincidence reporter assay to measure PMP22 gene transcription in S16 Pmp22-F2sN cells PROTOCOL TABLE (format as described by Inglese J, Shamu CE and Guy RK. 2007) SEQUENCE No. (e.g., 1, 2, 3, etc.); PARAMETER (e.g., Cells, Incubation, Reagent, etc.); VALUE and DESCRIPTION. 1. Cells. Add 500-1,000 cells in 4 uL in growth media (DMEM High Glucose, No Phenol Red media + 10% heat-inactivated FBS + 1% Pen/Strep supplemented media) per well into Greiner 1536-well white/solid bottom high base, TC-treated plates. 2. Compounds. Library compounds and controls added at 23nL per well, transferred by Pin Tool. 3. Incubation. Incubate plates at 37C, 5% CO2, 95% RH for 24 h. 4. Reagent. Add 3.5uL Nano-Glo Dual-Luciferase Reporter Assay System reagent 1: Lysis and FLuc reagent per well of Greiner 1536-well plates. 5. Incubation. Incubate plates at room temperature for 10 min., protect from light. 6. Detector. FLuc luminescence measured using CCD-based camera (Viewlux). 7. Reagent. Add 3.5uL Nano-Glo Dual-Luciferase Reporter Assay System reagent 2: Stop&Glo reagent per well of Greiner 1536-well plates. 8. Incubation. Incubate plates at room temperature for 10 min., protect from light. 9. Detector. NLuc luminescence measured using CCD-based camera (Viewlux). NOTES (numbers refer to Sequence numbers above; values are from representative experiments) 6. Luminescence Read #1 (FLuc): Clear filter; Exposure = 10 sec, Gain = High, Speed = Slow, Binning = 2X 9. Luminescence Read #2 (NLuc): Clear filter; Exposure = 1 sec, Gain = High, Speed = Slow, Binning = 2X REFERENCES: 1. Inglese J, Shamu CE and Guy RK, Reporting data from high throughput screening of small molecule libraries, Nature Chemical Biology, 2007, 3(8): 438-441. doi.org/10.1038/nchembio0807-438 2. Yasgar A, Shinn P, Jadhav A, Auld DS, Michael S, Zheng W, Austin CP, Inglese J and Simeonov A, Compound Management for Quantitative High-Throughput Screening. J. Assoc. Lab. Auto., 2008, 13: 79-89. doi: 10.1016/j.jala.2007.12.004", "values": [{"smiles": "COc1cc(-c2nc(Cn3nnc(C(=O)Nc4cc(C)cc(C)c4)c3C)c(C)o2)cc(OC)c1OC", "AC50": "17.2 µM [falling, partial curve, poor fit]"}, {"smiles": "CCOc1cc(-c2nnc(SCC(=O)NCc3ccccc3)nc2-c2ccc(OC)c(OCC)c2)ccc1OC", "AC50": "6.11 µM [falling, full curve, poor fit]"}, {"smiles": "COc1ccc(-c2nc3c(C#N)c[nH]n3c2NC2CCCC2)cc1", "AC50": "43.2 µM [falling, single point]"}, {"smiles": "Cn1nnnc1SCCNCc1cc(Br)ccc1OCc1ccccc1Cl", "AC50": "19.3 µM [falling, partial curve, poor fit]"}, {"smiles": "CCc1ccccc1Nc1cc(C(=O)NCCCN(C)C2CCCCC2)c2ccccc2n1", "AC50": "27.3 µM [falling, partial curve]"}, {"smiles": "Cc1ccc(CNC(=O)Cn2c(=O)n(Cc3ccccc3)c(=O)c3sc4ccccc4c32)cc1", "AC50": "19.3 µM [falling, partial curve]"}, {"smiles": "COc1ccc2c(c1)-c1nc(NC(=O)c3cc(Cl)ccc3OC)sc1CC2", "AC50": "24.3 µM [falling, partial curve]"}, {"smiles": "CCCOc1ccc(CN2C(=O)C(=O)c3cccc(C)c32)cc1", "AC50": "24.3 µM [falling, partial curve]"}, {"smiles": "COc1cccc(NC(=O)CCCn2c(=O)c3cccn3c3cccnc32)c1", "AC50": "21.7 µM [falling, partial curve, poor fit]"}, {"smiles": "CCOc1ccc(CCNc2nc3ccccc3n3c(C)nnc23)cc1OCC", "AC50": "5.44 µM [falling, full curve, poor fit]"}, {"smiles": "CCCS(=O)(=O)c1ncc(Cl)c(C(=O)Nc2scc(-c3ccccc3)c2C(=O)OCC)n1", "AC50": "8.62 µM [falling, full curve]"}, {"smiles": "Cc1ccc(Cl)cc1N1CCN(CCCNc2ncnc3onc(-c4ccc(Cl)cc4)c23)CC1", "AC50": "12.2 µM [falling, partial curve, poor fit]"}, {"smiles": "N#Cc1c(C(F)(F)F)cc(-c2cccs2)nc1SCC(=O)Nc1ccc(Cl)cc1", "AC50": "19.3 µM [falling, partial curve, poor fit]"}, {"smiles": "Cc1ccc(CNC(=O)CSc2c3c(nc4ccc(Cl)cc24)CCCC3)cc1", "AC50": "3.06 µM [falling, full curve, poor fit]"}, {"smiles": "CCN(CC)c1cc(C)c2cc(NC(=O)/C=C/c3ccccc3Cl)ccc2n1", "AC50": "24.3 µM [falling, partial curve]"}, {"smiles": "Cc1cccc(N2CCN(C(=O)c3ccc(CS(=O)c4cccc(Cl)c4)o3)CC2)c1C", "note": "(stereo not given)", "AC50": "4.32 µM [falling, full curve, poor fit]"}, {"smiles": "COC(=O)c1c(C)oc2ccc(N(C(=O)c3ccncc3)S(=O)(=O)c3c(C)cc(C)cc3C)cc12", "AC50": "24.3 µM [falling, partial curve, poor fit]"}, {"smiles": "CCOC(=O)c1ccc(NC(=O)CSc2nc3c([nH]c4ccccc43)c(=O)n2C)cc1", "AC50": "17.2 µM [falling, partial curve]"}, {"smiles": "CCOC(=O)c1ccc(N2C(=O)c3[nH]nc(-c4ccc(C)cc4)c3C2c2ccc(O)c(OCC)c2)cc1", "note": "(stereo not given)", "AC50": "12.2 µM [falling, partial curve]"}, {"smiles": "Cc1ccc(C)c(N2CCN(CCCNC(=O)Cn3c(-c4cccs4)cc4ccccc43)CC2)c1", "AC50": "24.3 µM [falling, partial curve]"}]}, {"assay": "Cell-based coincidence reporter assay to measure PMP22 gene transcription in S16 Pmp22-F2sN cells - Confirmatory screen (AID 1508646)", "settings": "S16 Schwann cells Pmp22-F2sN, dual luciferase, 24 h; measured here: NLuc reporter channel", "excerpt": "as §1, §2", "values": [{"smiles": "COc1cc(-c2nc(Cn3nnc(C(=O)Nc4cc(C)cc(C)c4)c3C)c(C)o2)cc(OC)c1OC", "AC50": "19.3 µM [falling, partial curve]"}, {"smiles": "CCOc1cc(-c2nnc(SCC(=O)NCc3ccccc3)nc2-c2ccc(OC)c(OCC)c2)ccc1OC", "AC50": "13.7 µM [falling, full curve, poor fit]"}, {"smiles": "COc1ccc(-c2nc3c(C#N)c[nH]n3c2NC2CCCC2)cc1", "AC50": "43.2 µM [falling, single point]"}, {"smiles": "Cn1nnnc1SCCNCc1cc(Br)ccc1OCc1ccccc1Cl", "AC50": "24.3 µM [falling, partial curve]"}, {"smiles": "CCc1ccccc1Nc1cc(C(=O)NCCCN(C)C2CCCCC2)c2ccccc2n1", "AC50": "43.2 µM [falling, single point]"}, {"smiles": "Cc1ccc(CNC(=O)Cn2c(=O)n(Cc3ccccc3)c(=O)c3sc4ccccc4c32)cc1", "AC50": "19.3 µM [falling, partial curve]"}, {"smiles": "COc1ccc2c(c1)-c1nc(NC(=O)c3cc(Cl)ccc3OC)sc1CC2", "AC50": "27.3 µM [falling, partial curve]"}, {"smiles": "CCCOc1ccc(CN2C(=O)C(=O)c3cccc(C)c32)cc1", "AC50": "24.3 µM [falling, partial curve]"}, {"smiles": "COc1cccc(NC(=O)CCCn2c(=O)c3cccn3c3cccnc32)c1", "AC50": "6.11 µM [falling, partial curve, poor fit]"}, {"smiles": "CCOc1ccc(CCNc2nc3ccccc3n3c(C)nnc23)cc1OCC", "AC50": "15.3 µM [falling, partial curve]"}, {"smiles": "CCCS(=O)(=O)c1ncc(Cl)c(C(=O)Nc2scc(-c3ccccc3)c2C(=O)OCC)n1", "AC50": "12.2 µM [falling, full curve]"}, {"smiles": "Cc1ccc(Cl)cc1N1CCN(CCCNc2ncnc3onc(-c4ccc(Cl)cc4)c23)CC1", "AC50": "3.85 µM [falling, partial curve, poor fit]"}, {"smiles": "N#Cc1c(C(F)(F)F)cc(-c2cccs2)nc1SCC(=O)Nc1ccc(Cl)cc1", "AC50": "24.3 µM [falling, partial curve]"}, {"smiles": "CC(=O)c1cccc(Nc2nc(-c3ccccc3Cl)nc3ccccc23)c1", "AC50": "19.3 µM [falling, partial curve]"}, {"smiles": "CCN(CC)c1cc(C)c2cc(NC(=O)/C=C/c3ccccc3Cl)ccc2n1", "AC50": "24.3 µM [falling, partial curve]"}, {"smiles": "Cc1cccc(N2CCN(C(=O)c3ccc(CS(=O)c4cccc(Cl)c4)o3)CC2)c1C", "note": "(stereo not given)", "AC50": "3.43 µM [falling, full curve]"}, {"smiles": "COC(=O)c1c(C)oc2ccc(N(C(=O)c3ccncc3)S(=O)(=O)c3c(C)cc(C)cc3C)cc12", "AC50": "19.3 µM [falling, partial curve, poor fit]"}, {"smiles": "CCOC(=O)c1ccc(NC(=O)CSc2nc3c([nH]c4ccccc43)c(=O)n2C)cc1", "AC50": "21.7 µM [falling, partial curve]"}, {"smiles": "CCOC(=O)c1ccc(N2C(=O)c3[nH]nc(-c4ccc(C)cc4)c3C2c2ccc(O)c(OCC)c2)cc1", "note": "(stereo not given)", "AC50": "21.7 µM [falling, partial curve]"}, {"smiles": "Cc1ccc(C)c(N2CCN(CCCNC(=O)Cn3c(-c4cccs4)cc4ccccc43)CC2)c1", "AC50": "27.3 µM [falling, partial curve]"}]}]}
